According to the RNAGym collection of RNA variant scans (doi:10.7554/elife.90254):
Read counts are not given, so values of variants with three or more changes are uncertain.

B1: LINE1-mini (parent)
chain: GGCAGAGCUCAACACAGCGUGGCAAAGUGGCUGUGGCUAGACUGCC

Variants of: B1
Experiment: self-cleavage, relative activity (ratio to wild type); higher = more cleavage; in vitro, sequencing; the parent is a self-cleaving ribozyme
G5C U20C A41G showed a self-cleavage of 0.07. C15U G19U C31U C45G showed a self-cleavage of 0.02. In the case of C10A G19C C42G, the self-cleavage is reported as 0.01. Work on G2U A26U G36A C37U yielded a self-cleavage of 0.02. For A6G A41C C46A, the self-cleavage was 0.17. A4U A24U A26U gave a self-cleavage of 0.58. With C10A G17A U20C the self-cleavage was 0.03. Work on C3A A6U C10A A11C A16U G33U U34C yielded a self-cleavage of 0.02. G2U U34C U38G C42U gave a self-cleavage of 0.01. C3U G5A G36A gave a self-cleavage of 1.5. Variant G1U A6G G33C A39G has a self-cleavage of 0.01. G7U G17A G27U showed a self-cleavage of 0.03. In the case of A24U G27A C31A, the self-cleavage is reported as 0.23. C3G G5A A12U C15U G27C gave a self-cleavage of 0.03. Work on G2C C13A G27C G33C U34C yielded a self-cleavage of 0.05. C10G C18A G27U G36C U38C showed a self-cleavage of 0.01. A16G G19C C37A showed a self-cleavage of 0.02. Variant A12U A39C G40C C42U has a self-cleavage of 0.03. Variant C10U G19A A26U has a self-cleavage of 0.98. In the case of A4U G7A C13G A16G G33A, the self-cleavage is reported as 0.06. Variant G7C U9G A16U G33U G40U has a self-cleavage of 0.02. G1A U9C C15U G33C showed a self-cleavage of 0.04. In the case of G2C G19C G44A C45A, the self-cleavage is reported as 0.01. Work on A16U G30U G33A C37U yielded a self-cleavage of 0.13. A12C G17U G27A U34C A41G gave a self-cleavage of 0.55. Variant G1C U9G G17A G19A G35C G36U has a self-cleavage of 0.01. With G1U A6C C46U the self-cleavage was 0.31. Variant G7U A24G G27A A41U has a self-cleavage of 0.13. A6C G21U G27U G36U showed a self-cleavage of 0.05. For U20G A25C A26C G27A U34A, the self-cleavage was 0.08. G17U G19U G27U showed a self-cleavage of 0.04. For A4U C8A U9A G29U G36U, the self-cleavage was 0.32. With G1U A6C G19U U20C U28G the self-cleavage was 0.02. Variant C3U C13G G21C C37U U38C has a self-cleavage of 0.33. A6C G21U G29U showed a self-cleavage of 0.76. G5C C10A G29U showed a self-cleavage of 0.05. For G7U C8G C18A C42A, the self-cleavage was 0.14. Work on G1C G33C C45A yielded a self-cleavage of 0.01. Work on G36C U38G U43G G44C yielded a self-cleavage of 0.03. G5U C10A A16C G22U A26U G27A showed a self-cleavage of 0.01. C8U A11G C15U G21C gave a self-cleavage of 0.04. For A6U A26U U38A A39G C45A, the self-cleavage was 1.92. For U20G G27C G36A, the self-cleavage was 0.01. For U9G A14U C15U G30C A41G, the self-cleavage was 0.2. G2A C15G U20A C31A U43C showed a self-cleavage of 0.02. C10A A26U G27C C37G C42G U43G gave a self-cleavage of 0. C8U C13A U28C C45U showed a self-cleavage of 0.18. For C10G A25C C31U U34C U38C, the self-cleavage was 0.02. Variant C3G C23U G27C has a self-cleavage of 0.08. Work on G1C C3U A4C U28A yielded a self-cleavage of 0.03. In the case of C8G G30A U32C, the self-cleavage is reported as 0.04. Work on C10A A11C G30A yielded a self-cleavage of 0.02. A16C G21C U28C G44U showed a self-cleavage of 0.02. Work on A4G C15U A24G A25G G29A U43A yielded a self-cleavage of 0.04. A4C A6C G7C A24G G44U gave a self-cleavage of 0.14. Variant C13A C15A G27U has a self-cleavage of 0.08. Variant G27A G29U U32C has a self-cleavage of 0.12. Work on C10A C23A A25U C42A yielded a self-cleavage of 0.02. Variant G2U G22U A26G G36A has a self-cleavage of 0.02. With G27C G36A C42A the self-cleavage was 0.02. For G17U U43A C46U, the self-cleavage was 0.03. For G1A U32G C37A A39G, the self-cleavage was 0.03. In the case of C10A A12C C18A C46A, the self-cleavage is reported as 0.02. With A14C C18A G33C the self-cleavage was 0.02. Variant G2U A11U G33U G35U U43A has a self-cleavage of 0.02. A26G G35C G36C gave a self-cleavage of 0.02. U9C C15U A39C gave a self-cleavage of 0.06. For A26G G40A G44C C46G, the self-cleavage was 0.03. In the case of A16G G27C C42G, the self-cleavage is reported as 0.03. Work on G7C G22C C42A yielded a self-cleavage of 0.12. Variant G7A C15A G22U A24C G30C has a self-cleavage of 0.03. G22U U43A C46G gave a self-cleavage of 0.07. For A4G U32A C45A, the self-cleavage was 0.05. For C3G C10U A16U U20C G40A, the self-cleavage was 0.06. C8U C37G G40A gave a self-cleavage of 0.02. For A12U C15U U43C, the self-cleavage was 0.15. Variant G27U U38A C46G has a self-cleavage of 0.24. Variant G5A A14U U20G G35C has a self-cleavage of 0.1. For U9C A12C A14C, the self-cleavage was 0. C10G G21U A26G G30U gave a self-cleavage of 0.12. C23A C31A G44U showed a self-cleavage of 0.09. In the case of C3U A24G G27A G36C, the self-cleavage is reported as 0.16. C10U G21C G30A gave a self-cleavage of 0.28. Variant A4U C8G A16C G19A has a self-cleavage of 0.02. C10G G27A C37U showed a self-cleavage of 0.01. In the case of C10G A39G C45A, the self-cleavage is reported as 0.02. A12C G17A C18A C31G gave a self-cleavage of 0.01. Work on G7A A12U A24G A41C yielded a self-cleavage of 0.01. Work on G2U C3A A4G A12C C15A G40C yielded a self-cleavage of 0.01. A4C U9G G17C A24U U28G G33U G40A A41U gave a self-cleavage of 0.01. For U9A C10A U20C C31G, the self-cleavage was 0.03. Work on G1C U9C U32A U34C yielded a self-cleavage of 0.02. In the case of G2U G40U U43C, the self-cleavage is reported as 0.14. A4G A6G U9A C31A gave a self-cleavage of 0.02. Work on U9A G27C G29C yielded a self-cleavage of 0.02. Variant C18U G19C C23A G36U A39U G44U has a self-cleavage of 0. Variant G17C C31U C45U has a self-cleavage of 0.09. G2C A11G G21U U32A C45G gave a self-cleavage of 0.01. With C10U G17U C23A C46G the self-cleavage was 0.09. A11G C15U C37A gave a self-cleavage of 0.02. With G17C G19A A41U the self-cleavage was 0.41. Work on A6G U9A G17U C37U yielded a self-cleavage of 0.05. Work on C10A A12C C15U A16C yielded a self-cleavage of 0.04. Variant A4G A25U G33U has a self-cleavage of 0.04. Work on C10A U20C U34C yielded a self-cleavage of 0.02. Variant G1A A6C A12U C15U G19A G27A G35U has a self-cleavage of 0.08. In the case of C15U C23G G30A C37G, the self-cleavage is reported as 0.03. With G5A G29C C46A the self-cleavage was 0.01. With A14G C37G C42G the self-cleavage was 0.01. In the case of C8A U9A A26U G29C, the self-cleavage is reported as 0.03. With G30U U32A G36A A39C G40C A41U the self-cleavage was 0.14. G30A C31A C45G showed a self-cleavage of 0.38. Work on C8A C18A G21C G33U yielded a self-cleavage of 0.09. G2C G30A U34C gave a self-cleavage of 0.04. With G1C A12U U20A C45A the self-cleavage was 0.02. G2A G7C C8U G19U G33U G40C C42U gave a self-cleavage of 0.26. For G7U C8G C13G C23G C46U, the self-cleavage was 0.13. Work on G2U G5C C10G A14G G22U U32G G44C yielded a self-cleavage of 0. For G17A U28C G40U, the self-cleavage was 0.11. Variant G2U U34A A41G has a self-cleavage of 0. C3A C10A U43C showed a self-cleavage of 0.02. Variant G1C C8U G22C G30A A39C has a self-cleavage of 0.02. G21U G22C G36A gave a self-cleavage of 0.06. With G5C A6G U9C G29U the self-cleavage was 0.05. Variant G1A A12U C31U C46A has a self-cleavage of 0.41. G19U U32C G35C C37U gave a self-cleavage of 0.01. With G1C C13U G27U G44A the self-cleavage was 0.03. Variant G5U C10U G19A C23A has a self-cleavage of 0.02. Work on G2A C3G G7A A12G U32A C37A U38G C46G yielded a self-cleavage of 0.08. In the case of G7U G17U A24G, the self-cleavage is reported as 0.12. G21A C42A C45G showed a self-cleavage of 0.01. With G1U A16C G21U U34C the self-cleavage was 0.01. With A16G C23U G27C the self-cleavage was 0.21. Variant A4U G7A C8G G17A G40U has a self-cleavage of 0.09. G36A C42U G44U showed a self-cleavage of 0.04. U20G G27A C42U showed a self-cleavage of 0.11. Variant G5U G22A A25U has a self-cleavage of 0.07. For A6U G7C A12G G29U G33C C45A C46G, the self-cleavage was 0.02. For G2C C10G G30A C46U, the self-cleavage was 0.02. In the case of A12G A41U C42G, the self-cleavage is reported as 0.05. In the case of C15A G17C C18U C23A, the self-cleavage is reported as 0.05. Work on U9G G17U G21U A25G U32A G35A U43G C46G yielded a self-cleavage of 0. Variant C13A A16C G19U has a self-cleavage of 0.08. A24U G33C C37A A39G C45U gave a self-cleavage of 0.01. A4U G7C U28G G29A U38A A39U showed a self-cleavage of 0.12. In the case of G7C G22U G44U, the self-cleavage is reported as 0.07. C3A G40A C42U showed a self-cleavage of 0.08. In the case of C13A C23A A24C A41C, the self-cleavage is reported as 0. With G27A C31G C37A G40A the self-cleavage was 0.09. C3U A4G C23G G29C gave a self-cleavage of 0.02. U20A G21U A26C showed a self-cleavage of 2.23. With A4U G5U U43C C45A the self-cleavage was 0.04. Variant G7C A14U C15U G17U U38A has a self-cleavage of 0.04. For G19C A25G G27A, the self-cleavage was 0.16. C3G C18A G21U U28G showed a self-cleavage of 0.15. Variant C31U A39G G40U C46A has a self-cleavage of 0.02. U20A A26G G33U U34C C37A gave a self-cleavage of 0.02. Work on G7C A16C C23G A24U A26U C31A U34C yielded a self-cleavage of 0.01. G5U A6U U28C gave a self-cleavage of 0.17. Work on G17A G22A C23U G29C yielded a self-cleavage of 0.15. U9A C15A C23U C37A G40U gave a self-cleavage of 0.05. For C18A A26U U38G, the self-cleavage was 0.01. A6G A16G U28A U43A C45U gave a self-cleavage of 0.11. A12U G17U G22C A39U gave a self-cleavage of 0.38. In the case of G2A C15G C46G, the self-cleavage is reported as 0.04. With A12C C23U G30U the self-cleavage was 0.01. G1U U28C G35U A41G showed a self-cleavage of 0.05.
